Measurements from the supplement of paper PMC3334620.
Whole data set: some 33,000 sequences, median “E-score (-0.5 to 0.5)” near -0.056, cut for the highest 2% near 0.38. The list shows a part of the results.

Each sequence was assayed against Stb4 (UniProt P50104) (assay: PBM E-score (8-mer binding enrichment) (E-score (-0.5 to 0.5)); higher = stronger / more preferred TF binding; most listed sequences are background and not binding sites). Conditions: protein concentration: 200 nM; construct: GST-DNA-binding domain.
Outline: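 Bound GST-tagged yeast transcription factors, applied at about 100-200 nM to double-stranded universal all-10-mer Agilent arrays, were detected with fluorescent anti-GST. Scans were normalised with masliner. A modified Wilcoxon-Mann-Whitney statistic, the E-score, was assigned to each ungapped eight-base word pooled with its reverse complement by the Universal PBM Analysis Suite.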
In the case of AGGAGCGC, the “PBM E-score” value is reported as -0.153. For GGCTGATA, the “PBM E-score” value was 0.154. In the case of GAATTACC, the “PBM E-score” value is reported as 0.174. With GGCTGCCC the “PBM E-score” value was 0.0668. With GTACGGAC the “PBM E-score” value was 0.0993. In the case of ACGAGCGG, the “PBM E-score” value is reported as 0.0575. ACACGCGG was tested, and the “PBM E-score” value was 0.157. With GCTACACC the “PBM E-score” value was -0.173. For ATATAGCA, the “PBM E-score” value was -0.202. In the case of CAAACCAA, the “PBM E-score” value is reported as -0.225. In the case of ACATGTAG, the “PBM E-score” value is reported as -0.168. With GCCTGGAA the “PBM E-score” value was -0.25. GATCGGAC was tested, and the “PBM E-score” value was 0.392. GTTACCCA was tested, and the “PBM E-score” value was -0.0577. In the case of ATATGCAC, the “PBM E-score” value is reported as -0.0313. In the case of AGGTGGTC, the “PBM E-score” value is reported as -0.224. AAGTATCA was tested, and the “PBM E-score” value was -0.182. With ATCGTTGG the “PBM E-score” value was -0.213. For ACCTGAGG, the “PBM E-score” value was -0.151. With GCGATAGA the “PBM E-score” value was -0.267. In the case of AAGATTAC, the “PBM E-score” value is reported as 0.122. For ATTGCATA, the “PBM E-score” value was -0.0112. In the case of ATGATGCA, the “PBM E-score” value is reported as -0.165. With AACACGAG the “PBM E-score” value was -0.107. For CCGCAGAG, the “PBM E-score” value was -0.0162. In the case of ACACAAAT, the “PBM E-score” value is reported as -0.0343. For AAGCATGG, the “PBM E-score” value was -0.0719. For ACTGATAT, the “PBM E-score” value was 0.00956. With AGCTAACC the “PBM E-score” value was -0.00838. With CGCTACCC the “PBM E-score” value was 0.0897. CAACACTG was tested, and the “PBM E-score” value was -0.267. For CGTTCAGA, the “PBM E-score” value was -0.0795. CGGCGATA was tested, and the “PBM E-score” value was 0.277. In the case of AGTACAAA, the “PBM E-score” value is reported as -0.0756. In the case of AAACTGCC, the “PBM E-score” value is reported as 0.0655. CGATAACA was tested, and the “PBM E-score” value was 0.205. GACGATAA was tested, and the “PBM E-score” value was -0.00034. For AGCGGCAT, the “PBM E-score” value was 0.113. AAATTTAT was tested, and the “PBM E-score” value was 0.0269. CCGACTAG was tested, and the “PBM E-score” value was 0.232. For CTTAATGA, the “PBM E-score” value was -0.246. TTCACCAA was tested, and the “PBM E-score” value was -0.0739. For GTCCAGGA, the “PBM E-score” value was -0.301. GCATTTCC was tested, and the “PBM E-score” value was 0.117. AATCACGG was tested, and the “PBM E-score” value was 0.241. For GATCTTCC, the “PBM E-score” value was 0.285. AGTATCAC was tested, and the “PBM E-score” value was -0.0927. ATGAGGAG was tested, and the “PBM E-score” value was -0.186. For AGAAGCCA, the “PBM E-score” value was 0.0781. For ATCGATGC, the “PBM E-score” value was 0.0219. In the case of CCCGTCAC, the “PBM E-score” value is reported as 0.181. In the case of CCGCGAAA, the “PBM E-score” value is reported as 0.155. For CAAAGCTA, the “PBM E-score” value was -0.187. ACGCCAAA was tested, and the “PBM E-score” value was -0.187. For AGCCGTGC, the “PBM E-score” value was 0.134. For ACTTAATA, the “PBM E-score” value was 0.125. GGATTGAC was tested, and the “PBM E-score” value was 0.0657. With ATGCGGAA the “PBM E-score” value was 0.332. For CCACACGG, the “PBM E-score” value was 0.134. With GTCGTACA the “PBM E-score” value was -0.0482. With GAGATTTA the “PBM E-score” value was 0.00895. CGGCACAG was tested, and the “PBM E-score” value was 0.328. With AACACTAC the “PBM E-score” value was 0.0356. AGAATCGC was tested, and the “PBM E-score” value was 0.0089. CACTATGC was tested, and the “PBM E-score” value was -0.0475. For AAGTAAAC, the “PBM E-score” value was 0.0883. In the case of GTCGCCAC, the “PBM E-score” value is reported as -0.126. ATGGATAC was tested, and the “PBM E-score” value was 0.0478. With AAACAAAG the “PBM E-score” value was -0.0221. For TCTGGTAA, the “PBM E-score” value was -0.116. GAGAGGCA was tested, and the “PBM E-score” value was 0.113. In the case of AGGCACCG, the “PBM E-score” value is reported as 0.0494. For CCACACCA, the “PBM E-score” value was -0.223. CGTGGCAA was tested, and the “PBM E-score” value was -0.14. TCATTTAA was tested, and the “PBM E-score” value was -0.0543. CGATAGTC was tested, and the “PBM E-score” value was -0.112. In the case of AGAACTCT, the “PBM E-score” value is reported as -0.301. With GTACCGAC the “PBM E-score” value was 0.279. ATACCGGC was tested, and the “PBM E-score” value was 0.248. With CTGTTTAA the “PBM E-score” value was -0.0736. For AATCGCAA, the “PBM E-score” value was -0.048. In the case of AGTACGGG, the “PBM E-score” value is reported as 0.00186. In the case of TAAGCTAA, the “PBM E-score” value is reported as -0.0234. In the case of CTTTCGGC, the “PBM E-score” value is reported as 0.386. CCTTCGTA was tested, and the “PBM E-score” value was -0.121. In the case of CACATCTG, the “PBM E-score” value is reported as 0.0198. In the case of ACAGTAAA, the “PBM E-score” value is reported as -0.187. In the case of AAGGGCAG, the “PBM E-score” value is reported as -0.0968. CGACTTAC was tested, and the “PBM E-score” value was 0.22. With GGATTGGA the “PBM E-score” value was 0.101. For GAGTGACC, the “PBM E-score” value was -0.0802. GGCAATTA was tested, and the “PBM E-score” value was 0.0261. In the case of ACGAGTGC, the “PBM E-score” value is reported as -0.213. In the case of ACTAAACC, the “PBM E-score” value is reported as 0.176. CCCACCTA was tested, and the “PBM E-score” value was -0.0843. In the case of TATAACGA, the “PBM E-score” value is reported as -0.157. For ATCGGCTA, the “PBM E-score” value was 0.403. CAGAATCC was tested, and the “PBM E-score” value was 0.0421. For CCGTTGAA, the “PBM E-score” value was -0.0435. For CATATAGC, the “PBM E-score” value was 0.118. With GCGTAACC the “PBM E-score” value was -0.00946. ATGGTTAC was tested, and the “PBM E-score” value was -0.128. In the case of CGCCACCA, the “PBM E-score” value is reported as -0.139. In the case of GGTCCCAC, the “PBM E-score” value is reported as 0.058. For GGGTGGCA, the “PBM E-score” value was 0.00667. In the case of CGACCCGA, the “PBM E-score” value is reported as 0.4. For AAGAATGT, the “PBM E-score” value was -0.215. For CCAGGCGG, the “PBM E-score” value was 0.0927. With AGACGCGC the “PBM E-score” value was -0.143. With AGGTCGAA the “PBM E-score” value was -0.297. With CTGCAGGA the “PBM E-score” value was -0.136. CATACACG was tested, and the “PBM E-score” value was -0.00889. With CCATAAAC the “PBM E-score” value was -0.142. With GTAAGCGA the “PBM E-score” value was -0.188. For CGAGCTCA, the “PBM E-score” value was 0.228. In the case of CAGGTAAG, the “PBM E-score” value is reported as -0.244. For AGGCGGTA, the “PBM E-score” value was -0.135. In the case of AATAGCGT, the “PBM E-score” value is reported as 0.0361. In the case of GAATGACA, the “PBM E-score” value is reported as -0.0727. With TCCGAGAA the “PBM E-score” value was 0.455. In the case of CTCTTCCA, the “PBM E-score” value is reported as 0.0511. ACATTATA was tested, and the “PBM E-score” value was -0.0577. In the case of GCTAATAC, the “PBM E-score” value is reported as 0.0852. ATTACAAG was tested, and the “PBM E-score” value was -0.216. With CACGGGGA the “PBM E-score” value was 0.121. For ATGAATCA, the “PBM E-score” value was -0.122. With GACAAGTC the “PBM E-score” value was -0.119. ATAACGGG was tested, and the “PBM E-score” value was 0.106. In the case of TTGATAAA, the “PBM E-score” value is reported as -0.105. CCGTATCA was tested, and the “PBM E-score” value was 0.236. CAGCGAAA was tested, and the “PBM E-score” value was -0.0442. For ATTAAGGC, the “PBM E-score” value was -0.0428. For CACTTTAC, the “PBM E-score” value was -0.0166. With AGGACGCC the “PBM E-score” value was -0.0764. CTAATCAA was tested, and the “PBM E-score” value was 0.0532. With CGTCTAAC the “PBM E-score” value was 0.0342. In the case of GGTTACGA, the “PBM E-score” value is reported as -0.0994. With ATGGGGTG the “PBM E-score” value was -0.0849. GTGGCCTA was tested, and the “PBM E-score” value was -0.12. With CCCTTTCA the “PBM E-score” value was -0.157. AATATCCT was tested, and the “PBM E-score” value was -0.0556. ATCCGGTC was tested, and the “PBM E-score” value was 0.302. With GTCCATAA the “PBM E-score” value was -0.288. CCGGTCAG was tested, and the “PBM E-score” value was 0.0903. For GGGGCAAA, the “PBM E-score” value was 0.108. For GCCGAAGA, the “PBM E-score” value was 0.362. GCCTAGCA was tested, and the “PBM E-score” value was -0.0769. For ACTGCAAC, the “PBM E-score” value was -0.0743. For GACATGTA, the “PBM E-score” value was -0.0526. For AAATGCCT, the “PBM E-score” value was 0.00392. CATCTAAA was tested, and the “PBM E-score” value was 0.0673. In the case of CAGAGTAC, the “PBM E-score” value is reported as -0.0331. For ACGTCTTA, the “PBM E-score” value was -0.197. For CACGCATA, the “PBM E-score” value was -0.194. With AGAATCTG the “PBM E-score” value was 0.00586. For GCTAAAAA, the “PBM E-score” value was -0.143. In the case of CCGCGGCC, the “PBM E-score” value is reported as 0.219. For TAACTAAA, the “PBM E-score” value was -0.158. For GACGGGCC, the “PBM E-score” value was 0.126. With CGCTGCCG the “PBM E-score” value was 0.226. For AGCGTTTA, the “PBM E-score” value was -0.17. With TGCCTAAA the “PBM E-score” value was -0.168. With CAACGCTG the “PBM E-score” value was -0.204. ACTAGGTG was tested, and the “PBM E-score” value was -0.17. AGCGCCCA was tested, and the “PBM E-score” value was -0.301. With GAAGTGAA the “PBM E-score” value was -0.0653. GTCCGCTA was tested, and the “PBM E-score” value was -0.0111. With GCGCCGCA the “PBM E-score” value was 0.0423. In the case of ATTAGGTA, the “PBM E-score” value is reported as -0.25. With GCATAGGA the “PBM E-score” value was -0.171. For ATCTTACC, the “PBM E-score” value was 0.0649. With ATCTCCCA the “PBM E-score” value was -0.0777.
